Experimental data reported in PubChem BioAssay AID624173 (National Center for Advancing Translational Sciences (NCATS), 2012).
Among all 410,000 compounds or so, about 490 (0.12%) were called active. Inconclusive means that the source gave no clear call. Such entries were picked first, then a sample of the others. Calls come from the whole dose curve; as a rule, active = well fitted inhibition curve with a large enough effect; inconclusive = small, poorly fitted or top-dose-only effect; inactive = flat fitted curve, though single readings scatter. A potency beside an inconclusive call is a rough fit, not a confirmed value.

These molecules were tested against pyruvate kinase (Trypanosoma brucei) (UniProt Q57TT1) (assay: qHTS of Trypanosoma Brucei Inhibitors). Settings: TbPYK enzyme, Kinase-Glo Plus ATP luminescence, 45 min; series mostly up to 76.8 µM.
Procedure, shortened: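 ADP (130 uM final) triggers the TbPYK reaction after compound addition; incubation is 45 min at room temperature. Kinase-Glo Plus is then added and luminescence imaged. Normalized data are fitted to concentration-effect curves.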
Note: nearly all actives have a fitted effect of over 50% in size.
Potency is the fitted concentration of half-maximal effect; tags give direction and shape of the fitted curve.

Compound	Potency
CCN(C(C)=O)c1nnc(CSc2nc3ccccc3s2)s1	inconclusive: 44.7 µM [inhibitor, single point]
CCOc1ccc(NC(=O)Cn2c(=O)n(CCCCC(=O)NCCc3ccc(Cl)cc3)c(=O)c3ccccc32)cc1	inactive
CN=c1c([N+](=O)[O-])nn(-c2ccc3c(c2)OCCO3)n1O	inactive
O=C(CN1CCN(c2ccc(O)cc2)CC1)Nc1ccc(S(=O)(=O)N2CCCC2)cc1	inconclusive: 22.4 µM [inhibitor, partial curve, poor fit]
COC(=O)c1ccc(CSc2c(C(C)C)cnc3c2c(=O)n(C)c(=O)n3C)cc1	inconclusive: 20 µM [inhibitor, partial curve, poor fit]
CC1(C)Cc2ccccc2-c2n[nH]c(=S)n21	active: 2.82 µM
CCCSC1=N/C(=C\c2ccc([N+](=O)[O-])o2)C(=O)S1	inconclusive: 35.5 µM [inhibitor, single point]
COC(=O)c1ccc(CCc2cc(O)ccc2O)cc1	inconclusive: 25.1 µM [inhibitor, partial curve]
CCOC(=O)c1sc2nccc(N(C)C)c2c1N=CNOCc1c(F)cccc1Cl	inactive
Oc1cc(O)cc(/C=C/c2ccc(O)c(O)c2)c1	inconclusive: 12.6 µM [inhibitor, partial curve]
CCN(CC)C(=O)C(C)N(C#N)c1nc(Cl)nc(N(C)C)n1 (configuration not stated)	inactive
COCCn1c(SCC(=O)c2c(N)n(C3CC3)c(=O)[nH]c2=O)nnc1-c1ccc(Cl)cc1	inconclusive: 31.6 µM [inhibitor, partial curve, poor fit]
CCc1nc(NC(=O)c2sc(C)nc2C)sc1C(=O)OC	inconclusive: 50.1 µM [inhibitor, single point]
CC(OC(=O)CCc1nc2ccccc2c(=O)[nH]1)C(=O)Nc1cccc(C(F)(F)F)c1 (configuration not stated)	inactive
CCCc1n[nH]c(=S)n1Cc1ccco1	inconclusive: 14.1 µM [inhibitor, partial curve, poor fit]
CCOC(=O)c1c(NC(=S)N2CCCCC2)sc2c1CCN(C(=O)OCC)C2	inactive
Cc1[nH]c(C)c(S(=O)(=O)NCCc2ccc(S(N)(=O)=O)cc2)c1C(=O)N1CCCC1	inactive
C[C@@H](CO)NC(=O)c1ccc2c3n(nc2c1)-c1ccccc1CO3	inconclusive: 35.5 µM [inhibitor, partial curve, poor fit]
O=C1NC(=O)C(=Cc2ccc(N3CCOCC3)cc2)C(=O)N1	inconclusive: 28.2 µM [inhibitor, partial curve]
S=c1[nH]nc(-c2ccco2)n1/N=C/C=C/c1ccccc1	inconclusive: 8.91 µM [inhibitor, partial curve, poor fit]
COC(=O)c1cc(-c2c(C)oc3cc(O)ccc3c2=O)c(C)o1	inconclusive: 39.8 µM [inhibitor, single point]
CCn1c(COc2ccc(C(C)C)cc2)nnc1SCC(=O)Nc1nccs1	inconclusive: 50.1 µM [inhibitor, single point]
Cc1ncc(CN2CCC(n3nccc3NC(=O)c3ccccc3)CC2)s1	inactive
CCOc1ncccc1C(=O)Nc1ccc(Cl)cc1	inconclusive: 31.6 µM [inhibitor, single point]

Compound	Potency
Oc1ccc(/C=N/Nc2ccnc3cc(Cl)ccc23)c(O)c1O	inconclusive: 39.8 µM [inhibitor, partial curve, poor fit]
Nc1ccc2nc(-c3ccccc3)sc2c1	inconclusive: 31.6 µM [inhibitor, partial curve, poor fit]
O=[N+]([O-])c1ccc2c(c1)N([O-])C1(CCCCC1)[N+]2=O	inconclusive: 25.1 µM [inhibitor, partial curve, poor fit]
O=C(CSCc1ccccc1)Nc1cccc(F)c1	inconclusive: 28.2 µM [inhibitor, single point]
CCOC(=O)c1c(NC(=O)COC(=O)CNC(=O)c2ccco2)sc(C)c1C	inconclusive: 31.6 µM [inhibitor, single point]
O=c1ccc2nc3ccccc3sc-2c1	inconclusive: 35.5 µM [inhibitor, partial curve]
COc1ccc(C2CC(=O)N3CN(C4CCCCC4)CSC3=C2C#N)c(OC)c1 (configuration not stated)	active: 17.8 µM
Cc1cc(C)c2sc(C)[n+](CCCS(=O)(=O)[O-])c2c1	inconclusive: 17.8 µM [inhibitor, partial curve, poor fit]
O=C(NC1(C(F)(F)F)NC(=O)N(CC2CCCCC2)C1=O)c1ccco1 (configuration not stated)	inactive
CC(NC(=O)CCSCCC(=O)NC(C)c1ccccc1)c1ccccc1 (configuration not stated)	inactive
COC(=O)C(C)Sc1n[nH]c(=S)s1 (configuration not stated)	inconclusive: 28.2 µM [inhibitor, partial curve]
CCn1c(=S)[nH]c2c(=O)n(C)c(=O)n(C)c21	inconclusive: 28.2 µM [inhibitor, partial curve, poor fit]
Clc1ccc(OCCn2cnc3ccccc32)cc1	inconclusive: 50.1 µM [inhibitor, single point]
CC(C)C[C@@H]1COc2cc(N(C)CCO)ccc2S(=O)(=O)N1	inconclusive: 20 µM [inhibitor, partial curve, poor fit]
S=c1[nH]nc(-c2ccccn2)n1/N=C/c1ccc(-c2ccccc2Cl)o1	inconclusive: 7.08 µM [inhibitor, partial curve]
O=C(COC(=O)c1cccs1)c1ccc2c(c1)OCCO2	inconclusive: 28.2 µM [inhibitor, partial curve]
Cn1c(-n2cccc2)c(-c2c(-c3ccccc3)[nH]c3c2c(=O)[nH]c(=O)n3C)c(=O)[nH]c1=O	inactive
CCOc1cc(C(=O)OCC(=O)NCc2ccco2)cc(OCC)c1OCC	inactive
COc1ccc2cc(C(=O)C3CCCN(C(=O)c4cnn(C(C)C)c4)C3)ccc2c1 (configuration not stated)	inconclusive: 50.1 µM [inhibitor, single point]
C/C(=N\NC(=O)C1CCCC1)c1ccc(Cl)cc1	inactive
Cc1nc2sc(C(c3ccco3)N3CCN(c4ccccc4)CC3)c(O)n2n1 (configuration not stated)	inactive
Cc1ccccc1OC(=O)CSc1nnc(-c2cccs2)o1	inactive
CC(=O)N1CCN(c2ccc(N)cc2)CC1	inactive
COc1ccc(OC)c(-c2c3cc(O)c(=O)cc-3oc3cc(O)c(O)cc23)c1	inconclusive: 35.5 µM [inhibitor, partial curve, poor fit]

Compound	Potency
O=C(NCCc1ccccn1)/C(=C/c1ccco1)NC(=O)c1ccccc1	inactive
O=c1c2cc3c(cc2[nH]c(=S)n1C1CCN(Cc2ccccc2)CC1)OCO3	inconclusive: 10 µM [inhibitor, partial curve, poor fit]
O=C(O)c1cnn(-c2nc(-c3ccc(Cl)c(Cl)c3)cs2)c1C(F)(F)F	inactive
O=C1c2cccc3cccc(c23)C(=O)N1CCN1CCN(CC(O)COCc2ccc(Cl)cc2)CC1 (configuration not stated)	inactive
CC(=C/c1ccccc1)/C=N/n1c(-c2ccncc2)n[nH]c1=S	inconclusive: 11.2 µM [inhibitor, partial curve, poor fit]
COc1ccc(S(=O)(=O)N2CCCCC2c2cc(C(=O)Nc3ccccc3)no2)cc1 (configuration not stated)	inactive
COc1ccc(/C=C2\N=C(C)OC2=O)cc1OC(C)=O	inactive
C[n+]1ccccc1/C=C/c1ccc(C#N)cc1	inconclusive: 31.6 µM [inhibitor, single point]
COc1cc2ccc(C(C)=NNC(N)=S)cc2cc1OC	inactive
CCCCNC(=O)c1onc(CSc2ccc(C)c(C)c2)c1C(=O)O	inconclusive: 35.5 µM [inhibitor, single point]
COc1cc2cc(C(c3nnnn3Cc3ccc(F)cc3)N3CCCCCC3)c(=O)[nH]c2cc1OC (configuration not stated)	inconclusive: 50.1 µM [inhibitor, single point]
COC(=O)c1cn(NC(=O)Cc2ccc(Cl)c(Cl)c2)c(=O)c2ccccc12	inconclusive: 28.2 µM [inhibitor, partial curve, poor fit]
CCOC(=O)C1(C)Oc2ccccc2C(C(=O)OC)=C1C(=O)OC (configuration not stated)	inconclusive: 44.7 µM [inhibitor, single point]
COc1cc(CNc2ccc(CNc3ncn[nH]3)cc2)ccc1OCc1ccccc1	inactive
O=[N+]([O-])c1ccc(-c2cc(-c3ccc(Cl)cc3)n[nH]2)cc1	inconclusive: 25.1 µM [inhibitor, single point]
Cc1ccc(-c2cc(NC(=O)CCl)n(-c3ccccc3)n2)cc1	inconclusive: 35.5 µM [inhibitor, partial curve, poor fit]
CCOc1ccccc1CN1CCc2nc(Nc3ccc4c(c3)OCCO4)ncc2C1	inactive
COc1ccc(/C=C2/CSC/C(=C/c3ccc(OC)c(OC)c3)C2=O)cc1OC	inactive
Cc1ccc(/C=C/C(=O)Nc2ncc(C)s2)o1	inconclusive: 50.1 µM [inhibitor, single point]
COCCNc1nc2cc(-c3ccccc3)sc2c(=O)n1C	inconclusive: 50.1 µM [inhibitor, single point]
COc1ccc(-c2csc(N3CCSCC3)n2)cc1	inconclusive: 17.8 µM [inhibitor, partial curve, poor fit]
COC(=O)Cc1c(C)nc2nc(-c3ccc(C)cc3)[nH]n2c1=O	inactive
O=C(Nc1ccccn1)c1onc2c1CCCC2	inconclusive: 39.8 µM [inhibitor, partial curve, poor fit]
O=c1c2ccccc2nc(-c2ccc(Cl)cc2)n1CCCOc1ccccc1F	inactive
